Measurements reported in PubChem BioAssay AID504333 (National Center for Advancing Translational Sciences (NCATS), 2011).
The whole screen tested about 360,000 compounds, of which about 16,000 (4.4%) were called active. The shares of active, inactive and inconclusive entries below differ from those in the screen. The call rests on the fitted dose curve; in most records, active means well fitted inhibition curve with a large enough effect; inconclusive means small, poorly fitted or top-dose-only effect; inactive means no such curve, though single readings can be large or run the other way. Where the call is inconclusive, the potency comes from a doubtful curve fit.

Target: Bromodomain adjacent to zinc finger domain protein 2B (Homo sapiens) (UniProt Q9UIF8)
Experiment: qHTS Assay for Inhibitors of BAZ2B; further: nearly all actives have a fitted effect of over 60% in size
Conditions: AlphaScreen BAZ2B-H3K14Ac peptide displacement; series mostly up to 114 µM
Procedure, shortened: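 Protein-peptide AlphaScreen: BAZ2B 50 nM, b-H3K14Ac 50 nM, 1x PBS pH 7.4 + 0.01% Tween-20. Preincubation 30 min RT; cpd 30 min RT (top 110 uM); beads 20 min RT, light-protected.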
Potency means the concentration at half of the fitted maximal effect; tags describe the fitted curve by direction and shape.

Sequence of UniProt Q9UIF8 (Q9UIF8 whole entry, looked up, the tested form may be a part): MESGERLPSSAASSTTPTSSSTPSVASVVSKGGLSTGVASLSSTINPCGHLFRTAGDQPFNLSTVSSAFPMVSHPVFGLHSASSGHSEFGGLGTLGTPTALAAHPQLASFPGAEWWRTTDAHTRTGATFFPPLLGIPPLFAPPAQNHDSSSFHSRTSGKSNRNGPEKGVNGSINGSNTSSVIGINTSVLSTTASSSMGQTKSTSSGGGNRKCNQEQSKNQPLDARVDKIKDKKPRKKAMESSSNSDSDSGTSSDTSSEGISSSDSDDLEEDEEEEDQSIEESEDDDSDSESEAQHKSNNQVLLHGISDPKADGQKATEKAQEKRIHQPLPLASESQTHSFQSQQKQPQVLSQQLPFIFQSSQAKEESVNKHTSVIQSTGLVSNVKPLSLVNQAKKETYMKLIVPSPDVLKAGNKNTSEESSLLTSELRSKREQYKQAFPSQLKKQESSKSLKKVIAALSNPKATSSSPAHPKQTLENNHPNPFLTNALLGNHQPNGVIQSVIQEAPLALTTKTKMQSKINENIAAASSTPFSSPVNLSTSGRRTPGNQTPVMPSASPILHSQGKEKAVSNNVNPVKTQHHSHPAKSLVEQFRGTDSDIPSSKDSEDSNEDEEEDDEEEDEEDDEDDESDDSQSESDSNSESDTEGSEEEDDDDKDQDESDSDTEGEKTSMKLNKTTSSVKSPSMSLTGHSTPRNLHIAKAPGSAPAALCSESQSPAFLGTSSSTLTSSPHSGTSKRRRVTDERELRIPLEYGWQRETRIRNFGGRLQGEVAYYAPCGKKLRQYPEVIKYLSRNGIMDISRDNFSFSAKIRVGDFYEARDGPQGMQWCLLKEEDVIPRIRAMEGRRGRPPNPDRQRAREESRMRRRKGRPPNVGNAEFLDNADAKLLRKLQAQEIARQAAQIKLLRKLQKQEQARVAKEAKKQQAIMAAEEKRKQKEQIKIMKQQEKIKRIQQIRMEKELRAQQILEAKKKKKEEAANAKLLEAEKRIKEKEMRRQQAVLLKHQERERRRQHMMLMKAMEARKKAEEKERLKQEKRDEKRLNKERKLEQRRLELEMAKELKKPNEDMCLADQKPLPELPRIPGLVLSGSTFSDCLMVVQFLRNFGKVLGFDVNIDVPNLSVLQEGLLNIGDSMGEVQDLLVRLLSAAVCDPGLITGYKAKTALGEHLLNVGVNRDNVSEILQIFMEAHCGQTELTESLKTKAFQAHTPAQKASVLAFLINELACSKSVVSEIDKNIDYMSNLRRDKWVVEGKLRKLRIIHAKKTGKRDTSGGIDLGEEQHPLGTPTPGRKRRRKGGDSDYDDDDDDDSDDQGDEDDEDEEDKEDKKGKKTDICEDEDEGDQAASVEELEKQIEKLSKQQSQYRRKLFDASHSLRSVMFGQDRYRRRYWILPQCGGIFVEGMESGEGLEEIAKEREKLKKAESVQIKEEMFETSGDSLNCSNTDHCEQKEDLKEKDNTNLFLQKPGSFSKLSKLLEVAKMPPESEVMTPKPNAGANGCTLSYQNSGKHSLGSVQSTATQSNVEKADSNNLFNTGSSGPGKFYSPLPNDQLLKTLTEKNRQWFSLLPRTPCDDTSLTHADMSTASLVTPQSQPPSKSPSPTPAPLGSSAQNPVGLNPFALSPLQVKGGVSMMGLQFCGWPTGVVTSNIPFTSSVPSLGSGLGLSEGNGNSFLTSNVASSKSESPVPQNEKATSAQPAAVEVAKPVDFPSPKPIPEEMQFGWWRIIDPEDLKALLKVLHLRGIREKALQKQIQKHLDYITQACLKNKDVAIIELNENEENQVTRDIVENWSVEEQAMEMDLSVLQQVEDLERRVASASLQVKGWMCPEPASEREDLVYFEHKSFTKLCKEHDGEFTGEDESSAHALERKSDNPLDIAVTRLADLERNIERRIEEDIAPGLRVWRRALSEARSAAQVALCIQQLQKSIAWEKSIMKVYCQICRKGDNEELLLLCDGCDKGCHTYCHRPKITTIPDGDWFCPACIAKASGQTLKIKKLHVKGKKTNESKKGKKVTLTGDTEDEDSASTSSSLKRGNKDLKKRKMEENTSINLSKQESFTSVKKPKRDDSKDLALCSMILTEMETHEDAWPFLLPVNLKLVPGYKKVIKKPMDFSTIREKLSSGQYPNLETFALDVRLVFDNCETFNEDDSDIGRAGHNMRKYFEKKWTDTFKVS

| Structure (SMILES) | Potency |
| --- | --- |
| Cc1noc(C)c1-c1ccc2ncnc(NC(C)c3ccco3)c2c1 (stereo not given) | inconclusive: 89.1 µM [inhibitor, single point] |
| COC(=O)c1cc(-c2ccccc2)c2c(=O)n(C)c(=O)n(C)c2n1 | inactive |
| Cc1ccc(O)c(NC2=C(Cl)C(=O)N(Cc3ccccc3)C2=O)c1 | active: 44.7 µM |
| CCOc1ccc(-n2ccnc2SCC(=O)NCc2ccc3c(c2)OCO3)cc1 | inconclusive: 44.7 µM [inhibitor, partial curve] |
| C/C(O)=c1/cnc2nc3ccccc3n2c1=O | inconclusive: 89.1 µM [inhibitor, single point] |
| O=[N+]([O-])c1cc(/C=N/N2CCN(c3ccccc3)CC2)ccc1Cl | inconclusive: 89.1 µM [inhibitor, partial curve] |
| C=CCN(CC=C)C(=S)NC(=O)c1ccc(-c2ccccc2)cc1 | active: 6.31 µM |
| CCn1c(O)c(C=NCc2ccccc2)sc1=S | inconclusive: 39.8 µM [inhibitor, partial curve] |
| COc1ccccc1/C=C/CN1CCC(Oc2ccc(C(=O)N3CCCCC3)cc2)CC1 | inconclusive: 70.8 µM [inhibitor, single point] |
| COc1ccc(-c2nc(SCC(=O)NCc3nc4ccccc4n3C)n3[nH]c(=O)cc3n2)cc1 | inactive |
| COc1ccc(-c2cc3ccc(OCC(=O)NCC4CCC(C(=O)O)CC4)cc3oc2=O)cc1 (stereo not given) | inconclusive: 89.1 µM [inhibitor, single point] |
| O=C(Cn1nnc(-c2ccccc2)n1)N/N=C/c1cc([N+](=O)[O-])ccc1O | inconclusive: 39.8 µM [inhibitor, partial curve, poor fit] |
| Cc1ccccc1NC(=S)NC(=O)Cc1ccc(Cl)cc1 | inconclusive: 89.1 µM [inhibitor, single point] |
| COc1ccc(NC(=O)CSCC(=O)NC2(C)CCS(=O)(=O)C2)cc1 (stereo not given) | inactive |
| CC(CN1CCCC(C(N)=O)C1)c1ccccc1 (stereo not given) | inactive |
| Cc1ccc(OCCSc2nc(-c3cccs3)nc3cc(=O)[nH]n23)cc1Cl | active: 50.1 µM |
| CCN(C(=S)NC(=O)c1ccccc1Br)C1CCCCC1 | inconclusive: 79.4 µM [inhibitor, single point] |
| COc1ccc(CN2CCCCCC2)cc1Br | inconclusive: 89.1 µM [inhibitor, single point] |
| CCC1(C)OC(=O)N2CCc3c(C)[nH]c4c(C)ccc(c34)C21C (stereo not given) | inconclusive: 50.1 µM [inhibitor, partial curve] |
| COc1cccc(-c2cnc(NCc3cc(Cl)ccc3O)n2C)c1 | active: 39.8 µM |
